Where “and” joins values, the source holds several entries; their conditions need not be identical. Identical values can stand only once. In all, about 110,000 compounds were measured (“z-score”: median about -0.1, highest 2% from about 2 on). The list shows a part of the results. Calls of active or inactive are those of the source.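 Rule for the calls: active = z-score in the third read window above 3 or below -3; inactive = the rest.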

This assay addresses Metabotropic glutamate receptor 8 (Rattus norvegicus) (UniProt P70579). Briefly: rat mGluR8 modulators via GIRK flux, primary screen, cell-based, thallium flux, HTS (AID 488969). As to conditions: HEK293 rat mGluR8, GIRK (G protein-gated inwardly rectifying potassium channel) thallium flux, FluoZin2; at 10 µM; stronger effect = higher value; submaximal glutamate (EC20) added with thallium.
Chain of UniProt P70579 (P70579 whole entry, looked up): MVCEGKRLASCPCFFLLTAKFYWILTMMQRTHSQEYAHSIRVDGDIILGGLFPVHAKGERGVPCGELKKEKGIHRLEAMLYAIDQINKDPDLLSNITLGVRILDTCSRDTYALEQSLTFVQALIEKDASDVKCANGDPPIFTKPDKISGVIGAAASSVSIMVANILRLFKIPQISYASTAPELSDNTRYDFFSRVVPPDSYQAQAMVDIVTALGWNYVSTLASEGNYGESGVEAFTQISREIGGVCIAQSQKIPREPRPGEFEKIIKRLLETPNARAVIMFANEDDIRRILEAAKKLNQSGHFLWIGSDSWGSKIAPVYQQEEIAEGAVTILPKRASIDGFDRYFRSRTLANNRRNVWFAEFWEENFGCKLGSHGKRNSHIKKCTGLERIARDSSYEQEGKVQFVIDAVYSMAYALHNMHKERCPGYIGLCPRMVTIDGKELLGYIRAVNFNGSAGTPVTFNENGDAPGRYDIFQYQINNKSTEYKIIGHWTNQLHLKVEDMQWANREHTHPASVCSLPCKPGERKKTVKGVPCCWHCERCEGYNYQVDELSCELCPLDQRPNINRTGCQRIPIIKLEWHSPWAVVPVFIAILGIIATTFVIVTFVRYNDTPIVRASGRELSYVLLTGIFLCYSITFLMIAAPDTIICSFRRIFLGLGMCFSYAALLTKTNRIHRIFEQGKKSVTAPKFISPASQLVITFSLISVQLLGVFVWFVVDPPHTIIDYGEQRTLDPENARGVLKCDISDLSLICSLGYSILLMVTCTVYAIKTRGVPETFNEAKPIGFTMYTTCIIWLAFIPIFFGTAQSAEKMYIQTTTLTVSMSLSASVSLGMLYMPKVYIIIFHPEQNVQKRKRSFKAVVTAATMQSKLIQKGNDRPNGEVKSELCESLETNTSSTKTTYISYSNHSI
In turn, `CCCCC1OC23CCCCC2C(C#N)(C#N)C1(C#N)C(=N)O3` (stereo not drawn) yielded a z-score of 0.072.
For the compound `CO/N=C/c1ccc(Sc2ccccc2N)c([N+](=O)[O-])c1`, the z-score is -0.288.
As for `CCCOc1ccc(C2NC(=O)NC2=O)cc1` (stereo not drawn), the figure is -0.976; as for `Cc1ccc(C(=O)COC(=O)C2CC(=O)N(c3nc(-c4ccccc4)cs3)C2)cc1C` (stereo not drawn), -0.0961.
In the case of `CC1=NN(c2ccccc2)C(=O)/C1=C\C=C1\N(C)c2ccccc2C1(C)C` it was -0.517.
As for `CCN1C(=O)/C(=C\c2cccn2-c2ccc([N+](=O)[O-])cc2)N(CC)C1=S`, the figure is -0.411.
Take `Cc1oc2c(CN(C)C)c(O)ccc2c(=O)c1-c1ccc2ccccc2n1`: the z-score was -0.0868.
Compound `O=C(COc1cccc2ccccc12)NNC(=O)[C@@H]1CCCC[C@@H]1C(=O)O` displayed a z-score of -0.389.
In the case of `CCOC(=O)CNC(=O)CNC(=O)Cn1ccc2ccccc2c1=O` it was 0.806; in that of `Nc1nc(SCc2ccccc2Cl)[nH]c(=O)c1-c1ccccc1`, 0.0636; in that of `COc1ccc(-c2ncncc2-c2csc(C)n2)c(O)c1`, 1.53.
`CC(=O)Nc1ccc(S(=O)(=O)N(c2cccnc2)S(=O)(=O)c2ccc(NC(C)=O)cc2)cc1` displayed a z-score of -0.206.
`Cc1ccc(C(C(=O)NC2CCCCC2)N(Cc2ccco2)C(=O)Cn2cnc3ccccc32)cc1` (stereo not drawn): the z-score is -0.4.
As for `Cc1cccc(C)c1OCC(=O)N/N=C/c1cc2c(cc1[N+](=O)[O-])OCO2`, the figure is 0.124; as for `COc1cc(/C=N/O)c(Br)cc1OCC(=O)Nc1ccccc1C`, -0.175; as for `CNC(=O)OCc1cccc(COC(=O)NC)n1`, 0.271.
As for `Cc1ccc(C(=O)c2cc([N+](=O)[O-])ccc2N2CCOCC2)c(C)c1`, the figure is -0.293.
Turning to `CCCCn1c(C(C)NC(=O)CC)nc2ccccc21` (stereo not drawn), the z-score amounted to 0.342.
In the case of `O=C(Nc1ccccc1N1CCCC1)c1ccco1`, the z-score was -0.0103.
As for `Cc1cc(C(C)(C)C)cc(S(=O)(=O)Nc2cccc(C(=O)O)c2)c1C`, the figure is -0.43; as for `Cc1ccc(C=Nc2ccc(N(C)C)cc2)o1`, -0.209; as for `O=C(N/C(=C\c1cccc([N+](=O)[O-])c1)C(=O)N1CCCCC1)c1cccs1`, -0.0617.
As for `CCCCOc1ccc(-c2nnn(CCC(=O)N3CCOCC3)n2)cc1`, the figure is 1.07; as for `COc1ccc(-c2nn3c(-c4ccncc4)nnc3s2)cc1OC`, -0.146; as for `CCCCCCOc1cccc(N)c1`, -0.0965.
As for `O=C(NCC1COc2ccccc2O1)C1CCC(CNc2c(N3CCCCC3)c(=O)c2=O)CC1` (stereo not drawn), the figure is -0.495; as for `Cc1ccnc(NC(=O)c2ccc(COc3ccc(Cl)cc3)o2)c1`, -0.203; as for `CSC1=NC(NCCCO)c2c(sc3c2CC(C)(C)OC3)N1` (stereo not drawn), -0.112.
`Fc1ccc(N/N=C(/c2ccccc2)c2ccccn2)cc1` gave a z-score of -0.766.
Compound `CCc1nc(C)cc(N)c1OCc1ccccc1` came in with a z-score of 0.243.
`Cc1ccc(C)c(Cn2nnc3c(=O)[nH]c(C4CCCN(C(=O)C5CCCCC5)C4)nc32)c1` (stereo not drawn): the z-score is -0.651.
On to `O=C(CCCOc1ccc(Cl)cc1)N1CCCCC1`, for which the z-score was -0.0458.
As for `CCOC(=O)N1CCN(C(=O)Cn2nc(C)c3sc4ccccc4c3c2=O)CC1`, the figure is 0.298; as for `COc1cc2c(cc1OC)-c1cc(OCc3ccccc3Cl)nc(=O)n1CC2`, -1.08; as for `CCC(=O)Nc1nnc(SCc2ccc(F)cc2)s1`, -0.00764.
As for `Cc1ccc2cc3c(nc2c1)N(Cc1ccco1)CC3`, the z-score was -0.36.
The compound `Cc1ccc(C2=NN(CCC(=O)NCCC(C)C)C(=O)CC2)cc1` gave a z-score of -0.21.
In the case of `COc1ccccc1CCNC(=O)c1cnccn1` it was -0.0818; in that of `COc1ccc(CCNC(=O)c2ccc(-c3ccc([N+](=O)[O-])cc3Cl)o2)cc1`, -0.757; in that of `Cc1ccc(CSc2nnc(C)c(=O)n2N)cc1`, 0.071.
As to `CC1=CC(C)(C)N(C(=O)CN2C(=O)c3ccccc3C2=O)c2ccc(C)cc21`, the z-score amounted to 0.455.
As for `O=C1CCCC(=O)N1c1ccc(Oc2ccc(Cl)cc2)cc1`, the figure is -0.258; as for `O=C(c1ccccc1)N1CCC(c2nc3c(nnn3Cc3ccccc3Cl)c(=O)[nH]2)CC1`, -0.833; as for `O=C(NC(Cc1ccccc1)C(=O)Oc1ccc2c(C(F)(F)F)cc(=O)oc2c1)OCc1ccccc1` (stereo not drawn), -0.163.
Turning to `COc1ccc(OC2C(=O)N(CCc3ccc(OC)c(OC)c3)C2c2ccc3c(c2)OCO3)cc1` (stereo not drawn), the z-score was -0.153.
In the case of `Cc1cc(/C=C2\SC(=Nc3ccccc3)NC2=O)c(C)n1-c1ccc(S(N)(=O)=O)cc1` it was -0.304.
For `CC(=C\c1ccco1)/C=C(\C#N)C(=O)NCCc1c[nH]c2ccccc12`, the z-score was -0.155.
`O=C(NNC(=S)Nc1ccccc1)c1ccco1`: the z-score was -0.0375.
In the case of `CCOC(=O)Cc1csc(NC(=S)NC(=O)c2ccc([N+](=O)[O-])cc2)n1` it was 1.72; in that of `CC(C(=O)Nc1ncc2c(n1)CC(C)(C)CC2=O)N1C(=O)c2ccccc2C1=O` (stereo not drawn), -0.278.
As for `COc1cccc(CNn2c(-c3cccc(C)c3)nc3ccccc3c2=O)c1`, the figure is 0.147; as for `CCOP(=O)(c1ccccc1)C1(C#N)CCCC1` (stereo not drawn), -0.0144.
In the case of `CCCS(=O)(=O)N1CCCC(C(=O)NCCN(Cc2ccccc2)C(C)C)C1` (stereo not drawn) it was 0.157.
As to `N#C/C(=N\O)c1nc(-c2ccccc2)cs1`, the z-score is 0.108 and -0.474.
In the case of `Cc1nn(C2CCS(=O)(=O)C2)c(Cl)c1/C=C/C(=O)OCC(=O)Nc1ccccc1OC(F)F` (stereo not drawn) it was 0.0178.
As for `CN(C)c1ccc(N=Cc2nc(-c3ccccc3)oc2OC(=O)c2cccc(Br)c2)cc1`, the figure is 0.824; as for `O=C(O)CN=C(NS(=O)(=O)c1ccccc1)c1ccccc1`, active: 4.61; as for `Cc1cccc2sc(N(CCCN(C)C)C(=O)c3sc4ccccc4c3Cl)nc12`, -0.202.
As for `CC1(C)Cc2c(C#N)c(N3CCN(C(=O)c4ccco4)CC3)nc(Cc3ccccc3)c2CO1`, the figure is -0.0405; as for `CCOC(=O)C(C(C)=O)c1nc(C)nc2c1nnn2Cc1ccccc1Cl` (stereo not drawn), -0.462; as for `CCOc1ccc(-c2nnc(-c3ccccc3)n2-c2ccccc2)cc1`, -0.771.
The compound `CCn1c(SCC(=O)c2cc(OC)ccc2OC)nnc1C1CC1` returned a z-score of -0.316.
Compound `Cc1c(Br)cc(C(=O)N2CCCC2)c(C)c1C` came in with a z-score of 0.235.
`COCCN(C(=S)Nc1ccc(OC)cc1)C1CCN(C(C)C)CC1`: the z-score was -0.00881.
As for `Cc1ccc(NC(=O)COC(=O)CN2C(=O)C3CCCCC3C2=O)cc1S(=O)(=O)N1CCOCC1` (stereo not drawn), the figure is -0.265.
As for `COc1cc(NC2c3ccccc3C(=O)N2Cc2ccc3c(c2)OCO3)cc(OC)c1OC` (stereo not drawn), the figure is -0.133.
`Cc1ccc(-c2csc(NC(=O)Cc3cccs3)n2)cc1C` showed a z-score of -0.106.
In the case of `COc1ccc(-c2c(C(F)(F)F)oc3c(CN4CCN(C)CC4)c(O)ccc3c2=O)cc1` it was -0.592; in that of `C=CCn1c(-c2ccc(OC)cc2)csc1=Nc1c(C)n(C)n(-c2ccccc2)c1=O`, -0.422; in that of `Cc1ccc(Nc2cc(=O)[nH]c(=O)[nH]2)c(C)c1`, -0.115.
In the case of `CCCCc1ccc(NC(=O)CN2NS(=O)(=O)c3ccccc3C2=O)cc1` it was -0.197.
In the case of `CCCn1c(CNc2ccccc2O)nc2ccccc21`, the z-score was -0.473.
Compound `O=C(O)/C=C/c1coc2ccccc2c1=O` gave a z-score of -0.0918.
In the case of `CCCOc1ccc(N2C(=O)CC(NNC(=O)c3ccc(COc4ccccc4)o3)C2=O)cc1` (stereo not drawn) it was -0.011; in that of `CCOc1ccc(NC(=O)Nc2ccc3c(c2)nnn3C)cc1`, -0.355.
As for `O=C1NC(=Nc2ccccc2)/C(=C/c2ccco2)S1`, the figure is -0.215.
`Cc1ccc(Cl)c(OC(=O)c2ccc(N3CCOCC3)c([N+](=O)[O-])c2)c1`: the z-score is -0.352.
In the case of `Cc1cccc2cc(CN(Cc3ccc(F)cc3)C(=O)N3CCOCC3)c3nnnn3c12` it was -0.294; in that of `O=C(NCc1cccs1)c1nn2cccnc2c1Cl`, 0.0467.
As for `O=C(c1ccc(Cl)cc1)N1CCN=C1c1ccccc1`, the figure is -0.183; as for `COc1ccc(CCNCc2ccc(OCc3ccc(Cl)nc3)c(OC)c2)cc1OC`, 0.013; as for `Cc1ccc(C(C#N)c2ccc3c(C(F)(F)F)cc(C(F)(F)F)nc3n2)cc1` (stereo not drawn), 1.26.
`CCOC(=O)C1CCN(C(=O)c2ccc(Cl)c(Cl)c2)CC1` came in with a z-score of 0.0007.
The compound `COCCn1c(=O)c2cc3c(=O)n(CCOC)c(=O)c3cc2c1=O` returned a z-score of 0.119.
Consider `Cc1ccc(-n2c(SCC(=O)Nc3ccc4c5c(cccc35)CC4)nc(O)cc2=O)cc1`, for which the z-score is -0.675.
The compound `COC(=O)c1ccc(Cn2c(C)cc(C)[n+]2C)o1` gave a z-score of -0.26.
As for `CC(=O)NC(CCS(C)(=O)=O)C(=O)Nc1nccs1` (stereo not drawn), the figure is 0.088; as for `CCOC(=O)C1=NN(C(=O)Nc2cccc(C(F)(F)F)c2)C2C(=O)N(c3cccc(C(F)(F)F)c3)C(=O)C12` (stereo not drawn), -0.168; as for `Cc1ccc2nc(NC(=O)C(NS(=O)(=O)c3cccc4nsnc34)C(C)C)sc2c1` (stereo not drawn), -0.223.
As for `CCCN(CCC(=O)Nc1ccccc1F)CC1CC1`, the figure is -0.182; as for `Cc1oc(C(=O)O)cc1COc1ccc2c3c(c(=O)oc2c1C)CCC3`, -0.462.
As for `COc1ccc(CNC(=O)c2ccccc2SC)cc1`, the figure is -0.0757; as for `O=C(CCCSc1nc2sc3c(c2c(=O)[nH]1)CCC3)NCCCO`, -2.63.
The compound `COc1ccccc1NC(=O)Cc1nc(CCl)cs1` came in with a z-score of -0.0598.
`COc1ccccc1-c1c(C)oc2c(CN3CCN(CCO)CC3)c(O)ccc2c1=O` came in with a z-score of -0.126.
In turn, `Cc1cc(C(=O)OCC(=O)Nc2ccc(F)c(F)c2)c(C)o1` yielded a z-score of 0.0113.
In the case of `CC1CN(C(=S)NC(=O)c2ccc([N+](=O)[O-])cc2)CC(C)O1` (stereo not drawn) it was 0.605.
In the case of `O=C(CSc1nc2ccccc2n1CC(=O)N1CCCC1)N1CCN(C(=O)c2ccco2)CC1` it was -0.613; in that of `O=C(Cn1cc(-c2nnnn2-c2ccc(Cl)cc2)c(=O)c2ccccc21)c1ccccc1`, 0.138.
Take `C/C(=N\NC(=O)c1ccccc1F)c1ccc2c(c1)Nc1ccccc1S2`: the z-score was -0.108.
`CCNC(=S)N1CCN(C(c2ccccc2)c2ccccc2)CC1` displayed a z-score of -0.321.
Compound `CCOc1ccccc1NC(=O)c1cnc2n(c1=O)CCS2` registered a z-score of 0.405.
In the case of `O=S(=O)(NC1CC1)c1cccc(S(=O)(=O)N2CCCC2)c1` it was -0.508; in that of `COc1ccc(OCc2nc(N)nc(Nc3cccc(C)c3C)n2)cc1`, -0.0211.
Take `CCCC(=O)OC(C(=O)Nc1cc(C(F)(F)F)ccc1Cl)c1ccccc1` (stereo not drawn): the z-score was -0.094.
In the case of `Nc1nc2ccccc2n1C(=O)CCc1ccccc1` it was 0.801; in that of `COc1cc(/C=C(\C#N)C(=O)NCC2CCCO2)c([N+](=O)[O-])cc1OC` (stereo not drawn), -0.142.
On to `O=C1CN(c2nc3ccccc3n3cnnc23)CC(=O)N1CCc1ccccc1`, for which the z-score came out at 0.0771.

Values taken from PubChem BioAssay AID488969 (Vanderbilt High Throughput Screening Facility, 2010).
